# This is one part of the list.
# B1: chr1:16667403:16667404:+_ENSMUSG00000025940_ENSMUST00000065373|mus_hu|FALSE|FALSE (ssRNA)
# RNA: GGGAGUUCUACAGUCCGACGAUCUGUCAUAACCCAUUAGAUGGAUAUAGUCUUCACGGUUUGGAAAGAGCACUGGAUUAACUAACAGUGAUUUUGUUUUAGCAUAAAAUGUGGUAAAUACAUGUUUAGCAUCUGGAAUCUUCACAACAGAGGAUUGAGCAUCA
# B2: chr8:92090715:92090716:+_ENSG00000155100_ENST00000285420|hu_hu|motif|central (ssRNA)
# RNA: GGGAGUUCUACAGUCCGACGAUCUUUCAGUUGAUCUUCAAUGGCUUUAUACAUACAGUGGCCAUCAGAUGGAAUCUGUUUAAUUUCGGACUGUCUAGCUGCCAAUAUUUGAGCAAGUUUCUCACUUUCCAUAUGUCUGGCUCCCAACAGAGGAUUGAGCAUCA
# B3: chr22:35691198:35691199:+_ENSG00000100281_ENST00000216106|hu_mus|motif|central (ssRNA)
# RNA: GGGAGUUCUACAGUCCGACGAUCACAGUCCUGUGAGAAGCUUAGCUGUGACAGCAGUCGGGCUAUGGGAAGGAGUUCCCGGGGAUGCCAGCUGGCUACAUGGUCCCCAAAGGUUUACUGUGAUGCUGCCUCGUUCCAUCCAGGCAACAGAGGAUUGAGCAUCA
# B4: chr1:60041781:60041782:+_ENSMUSG00000041040_ENSMUST00000036540|mus_hu|mus_mus_mus_hu_False|1_58 (ssRNA)
# RNA: GGGAGUUCUACAGUCCGACGAUCAAGUUUACAAUAGUAAAGUAAAUGCAGUAGUGGCAAAUUUUCUUUUAUUUUCCUUCCUAAAAGAAAAUCUUUAUAACCCAGUCCUAGUCUUGGACAUAGUGAAAGCUAUAAAUGCCACUGCAACAGAGGAUUGAGCAUCA
# B5: 135330265_135330946_5819_CDS_ENSG00000155561_ENST00000285968|human|control|control (ssRNA)
# RNA: GGGAGUUCUACAGUCCGACGAUCCCCACUUCUAAAAUCUAGAUUGGUUUCUGAGGCGAAGGAAUCUUGCAGUCUUCUGCUUUUAAACAAGGUUCUCGAGGCAAAUAAGGAAUCUUGAGAAUCCGUGGGCAUGCAAUGUAACAACAACAGAGGAUUGAGCAUCA
# B6: chr4:24541891:24541892:-_ENSG00000109606_ENST00000336812|perfect_dup|motif|central (ssRNA)
# RNA: GGGAGUUCUACAGUCCGACGAUCGGAUCCCAAUUCAGUCAGAUCUCCAUCAUCAUUUAAAGCAGCCAAAUAAUUCAAAAGUUCGGGGGCUCUCAUCAGAGUUUCAGGAGCUGGUGGGUCCAUAAAAUCAAAGUGUACCAAGUCCAACAGAGGAUUGAGCAUCA
# B7: chr2:55200753:55200754:-_ENSG00000115310_ENST00000317610|hu_mus|motif|central (ssRNA)
# RNA: GGGAGUUCUACAGUCCGACGAUCUUGGAUUUUGGCCAUGGCAUCCUUAACGCUCUUGUUUGCAAGUCCUAGAUAAUGAUCGGUCUGCGCCUGAUGCCGUUCAUAUAUAACAGGAAUACUGAAGAGUGAGAUCAGAGCUAAAAUCAACAGAGGAUUGAGCAUCA
# B8: chr7:151048522:151048523:+_ENSG00000013374_ENST00000566856|hu_mus|hu_hu_hu_mus_True|78_98 (ssRNA)
# RNA: GGGAGUUCUACAGUCCGACGAUCCUGUUUCUUAUUUAUGACAAUUUUGAUGUAAUUUUCUUGAAGUCCGAAAGUUUCAGCUAUUUGACACCUCAGGUCUCUACCAGUGACAUGCAAGCGGGUCUCCAACAAGCUUUUCUUAUCCAACAGAGGAUUGAGCAUCA
# B9: chr18:33362079:33362080:-_ENSMUSG00000024378_ENSMUST00000025236|mus_mus|FALSE|FALSE (ssRNA)
# RNA: GGGAGUUCUACAGUCCGACGAUCUGACCUGCCUGCCUGCCAUUAUUGCCAGAGCUCACGUUACUCCAGAUCUGCCAACACGGAAACACAAACCCACCCACCUUCCCACCAACCAACCAAACGAAGGAAAGGGAAACACGUAAGCAACAGAGGAUUGAGCAUCA
# B10: chr3:196509625:196509626:+_ENSG00000180370_ENST00000327134|hu_hu|FALSE|FALSE (ssRNA)
# RNA: GGGAGUUCUACAGUCCGACGAUCAACAGAGGGCAAAGGUUUCAAACUGUGAUUGGCUGACAAAGGGUCUUUGCCUCCAGUGCUAAAGAUGGUGCUGCUCAUUCGCACAGGAGGUGCUGGAGGCUUAUCUUCCAGUUCUCCGUUCAACAGAGGAUUGAGCAUCA
# B11: chr4:76721835:76721836:+_ENSG00000138768_ENST00000264904|hu_mus|hu_hu_hu_mus_True|38_78 (ssRNA)
# RNA: GGGAGUUCUACAGUCCGACGAUCGUUUGGCUGGGGUUUCUGAGACGCUCUGGAAUAAACUCAUGUUUUGCUAAUAAAUCCUAGUUUCUCUAUGAAAUCUCUUUGCCCAAUCCUCUUCUCUAUUAGUUGCUUUAGUUUCUCUUUCAACAGAGGAUUGAGCAUCA
# B12: chr15:76912013:76912014:-_ENSMUSG00000033565_ENSMUST00000166610|mus_hu|FALSE|FALSE (ssRNA)
# RNA: GGGAGUUCUACAGUCCGACGAUCUUCUCAGUGUUGACACUGAAAACCAAAGACCCUUUCAUAAAAAGCAGAACUCCAUUUAUUCUUUCUUAGAAAAGGGAGCUGGAGGAAGCGGUGUUAAACACCAUCCCUGGAAAUGCAGCACAACAGAGGAUUGAGCAUCA
# B13: chr11:72491332:72491333:+_ENSMUSG00000020794_ENSMUST00000021148|perfect_dup|FALSE|FALSE (ssRNA)
# RNA: GGGAGUUCUACAGUCCGACGAUCAGCAUCUACAUUUGCAGGUGAGUCUCCAUUAGGAUCUGCCAGCAUAGAAAUGACACUAAUCAUGAUGGUUUCCACAGUAUGGAUAGGUAACCAGCGUUCCUCUGGCUUCUCAUAACCAUACAACAGAGGAUUGAGCAUCA
# B14: 14247351_14250109_1196_CDS_ENSMUSG00000039219_ENSMUST00000039538|mouse|control|control (ssRNA)
# RNA: GGGAGUUCUACAGUCCGACGAUCAUCCUCCAUGAACUUAUACAGCUGCUGAAGAAAGUUCUCCCUUUCCUCUGGAAAUGGUUCUAUUUCUUCCUCUUCUUCGCUGCUGUUAUCUUCUUUCUCUUUUUCAUCAUCUUCCUCCUCCAACAGAGGAUUGAGCAUCA
# B15: 141319563_141319683_2449_3pUTR_ENSMUSG00000040697_ENSMUST00000038014|mouse|control|control (ssRNA)
# RNA: GGGAGUUCUACAGUCCGACGAUCCCUCGGGAGGAGUCAGGGUCACAGGAGGCCACAGUCUCCUCAUCCACUGUCUUUAGUGGCUUGAAAAGGCAGAAAUACUUCUUGUGACCGUUCAGGGCCAGCACGUAGCCAGUGUAGUCUCAACAGAGGAUUGAGCAUCA
# B16: 20976649_20976769_4193_CDS_ENSMUSG00000033382_ENSMUST00000025177|mouse|control|control (ssRNA)
# RNA: GGGAGUUCUACAGUCCGACGAUCCGAUAACUUGGCGAAUACUCUUGGAGUUCCAAGGUUAUAAACGCCUGUAUGAACAAAGCAUGCCUUCAGCUGCAAACUGUGCAUCUCUUGGCUUUUCAGCUGGAGCUUAUACUGUGUCUGCAACAGAGGAUUGAGCAUCA
# B17: 42913603_42913723_138_3pUTR_ENSMUSG00000059495_ENSMUST00000165665|mouse|control|control (ssRNA)
# RNA: GGGAGUUCUACAGUCCGACGAUCGUAGGACGGGAACCGGGAUCCCUCCGGAGCUGGGGCAGGAUCGGCUCAGGGACGGGCGUCGGCUUCGGUCCCGAGUCGGCGGGGCCCGGCCCUCGGGUCCCCGCUCUAUCUGGGGCUGCGCAACAGAGGAUUGAGCAUCA
# B18: chr14:67423352:67423353:-_ENSMUSG00000022048_ENSMUST00000022629|mus_mus|FALSE|FALSE (ssRNA)
# RNA: GGGAGUUCUACAGUCCGACGAUCAAACUAGGAUAGCACAAAACUAUGGUGGUGGGGGCAAAACUAAGAUCUGCUCAGGCUAUGCCUGAGACCAAACUGGGUUGCCUGGCUUUAAGAGCAGACAGAGUUAAGAGGAAAAAAAAACAACAGAGGAUUGAGCAUCA
# B19: chr5:21408736:21408737:-_ENSMUSG00000042453_ENSMUST00000161356|mus_hu|mus_mus_mus_hu_False|78_98 (ssRNA)
# RNA: GGGAGUUCUACAGUCCGACGAUCGUUGACAGAGUUGUAAAUGGUGGCUUCAUGGAACUGGAACGGGGAGCAGCCAAUGCUGUUAGAAGAGGAAGGAAGGCACUGGGUCUGUACGAGCUGCCAGGAAUCCGAUCUUGCAUCCUUCAACAGAGGAUUGAGCAUCA
# B20: chr2:73747301:73747302:-_ENSMUSG00000018770_ENSMUST00000018914|mus_hu|motif|central (ssRNA)
# RNA: GGGAGUUCUACAGUCCGACGAUCAUAACCAAUGAUAAGGCUGCCAAAGACUGUUCCAAUACCAGCACCAGAACCAGCCACUCCGGCUGUUGCAGCACCUGCACCAAUAAAUUUGGCAGCAGUAUCAAUGUCUCUGCUGAUUGCCAACAGAGGAUUGAGCAUCA
# B21: chr15:43699750:43699751:-_ENSG00000067369_ENST00000382044|hu_mus|motif|central (ssRNA)
# RNA: GGGAGUUCUACAGUCCGACGAUCACACUUGAGCACCGAGGCUGGGCAUGAGGGGUCUGUCACCACCACAUCAAAUACCCCGGAAGCAAUGUCUUUGUUGUGGGCACUUGAAUGGUGCUGCUUCACAGAGGCUGCCCCUCCAGUCAACAGAGGAUUGAGCAUCA
# B22: 113335602_113338832_600_3pUTR_ENSMUSG00000079426_ENSMUST00000156898|mouse|control|control (ssRNA)
# RNA: GGGAGUUCUACAGUCCGACGAUCCCUUUGCAGACGCAGAGACACAGGGAGGCCGAGGGGAAGGCUGCGAGAUCCAGCUAGAUGUUUUAAAAAUUCUUGAGGAACUCCUCAGCUACGAUACGAGCCCGGGCAUUGACCGACAGCCAACAGAGGAUUGAGCAUCA
# Biological target: T1, UNK ZnF1-3 (human, UniProt Q9C0B0 31-174)
# T1 sequence: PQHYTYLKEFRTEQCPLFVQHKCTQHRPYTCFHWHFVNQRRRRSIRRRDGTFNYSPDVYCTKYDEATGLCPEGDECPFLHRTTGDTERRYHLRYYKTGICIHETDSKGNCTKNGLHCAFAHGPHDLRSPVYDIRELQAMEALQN
# Assay: nsRBNS (natural sequence RNA bind-n-seq); RBNS binding buffer (assumed for nsRBNS): 25 mM Tris pH 7.5, 150 mM KCl, 3 mM MgCl2, 0.01% Triton X-100, 500 ug/ml BSA, 20 U/ml SUPERase-In, 4 C; UNK is unkempt and MSI1 is Musashi-1; names of the RNAs are library labels; protein concentration not given here; high values mean tight binding
row,Binder,binding signal
1,B1,0.749 enrichment R
2,B2,0.65 enrichment R
3,B3,1.1 enrichment R
4,B4,0.633 enrichment R
5,B5,0.951 enrichment R
6,B6,2.07 enrichment R
7,B7,1.27 enrichment R
8,B8,0.931 enrichment R
9,B9,1.96 enrichment R
10,B10,0.661 enrichment R
11,B11,0.39 enrichment R
12,B12,0.804 enrichment R
13,B13,1.17 enrichment R
14,B14,0.324 enrichment R
15,B15,0.688 enrichment R
16,B16,0.441 enrichment R
17,B17,0.641 enrichment R
18,B18,2.01 enrichment R
19,B19,2.13 enrichment R
20,B20,0.999 enrichment R
21,B21,0.97 enrichment R
22,B22,1.46 enrichment R
